Assay results reported in PubChem BioAssay (NCATS).
This is one part of the list. Further columns of the screen follow, without active or inactive calls. Compounds called inactive in the main read-out are mostly missing here. The note in brackets gives the kind of curve behind each potency; many fits are weak.

Assay: qHTS Assay for Lipid Storage Modulators (AID 1519)
Conditions: Drosophila S3 cells, BODIPY lipid droplet/cell ratio, laser cytometry; measured here: cell count channel max response; cells loaded with oleic acid
Outline: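 Cells seeded at 5,000 per well were treated with compounds over a concentration series and loaded with oleic acid (400 uM, as added). Lipid droplet fluorescence (488 nm excitation, 500-530 nm channel) was read by laser-scanning cytometry and normalized to 20 uM Triacsin C.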
Tags tell the direction and shape of the fitted curve.

SMILES	max response [%]
CCCCCN=c1ccn(Cc2ccccc2)c2ccccc12	37.1
C(=C\c1ccccc1)/CN1CCN(C(c2ccccc2)c2ccccc2)CC1	-44.2
Cn1cccc1C(=O)N1CCC2(CCCN(c3ncccn3)C2)CC1	19.5
Cc1ccccc1-c1ccc2ncnc(NCc3cccnc3)c2c1	11.2
N#Cc1cccc(NC(=O)N2CCCC3(CCN(C(=O)c4csnn4)CC3)C2)c1	21.5
COc1ccccc1CNc1ncncc1-c1ccccc1C(F)(F)F	25.6
O=C(c1cccc(F)c1)N1CCC2(CC1)CCN(c1ccccn1)CC2	7.31
COc1cccc(Cn2c(=O)c(-c3cccs3)nc3cnc(Nc4ccccc4)nc32)c1	44.6
O=NN(CCCl)C(=O)NCCCl	33.3

Same assay, conditions: Drosophila S3 cells, BODIPY lipid droplet/cell ratio, laser cytometry; measured here: cell number channel AC50; cells loaded with oleic acid

SMILES	AC50
CCCCCCCCCCCC(CC1OC(=O)C1CCCCCC)OC(=O)C(CC(C)C)NC=O (configuration not stated)	20 µM [rising, partial curve, poor fit]
O=C(O)CCC(=O)c1ccc(-c2ccccc2)cc1	12.6 µM [rising, partial curve, poor fit]
CN1CCN(C2=Cc3ccccc3Oc3ccc(Cl)cc32)CC1	28.2 µM [rising, partial curve, poor fit]
O[C@H](CN1CCN(c2cccc(Cl)c2)CC1)C(c1ccccc1)c1ccccc1	14.1 µM [rising, partial curve, poor fit]
COC(=O)N1CCC2(CCN(C(=O)Nc3ccc(OC)cc3)CC2)CC1	3.55 µM [rising, partial curve, poor fit]
CN(C)CCN(Cc1cccs1)c1ccccn1	39.8 µM [rising, partial curve, poor fit]
CCCCCN=c1ccn(Cc2ccccc2)c2ccccc12	0.631 µM [rising, full curve, poor fit]
Cc1ccccc1-c1ccc2ncnc(NCc3cccnc3)c2c1	3.55 µM [rising, single point]
COc1cccc(Cn2c(=O)c(-c3cccs3)nc3cnc(Nc4ccccc4)nc32)c1	0.794 µM [rising, full curve]

Same assay, conditions: Drosophila S3 cells, BODIPY lipid droplet/cell ratio, laser cytometry; measured here: lipid (BODIPY) channel AC50; cells loaded with oleic acid

SMILES	AC50
CC(C[N+](C)(C)C)OC(N)=O (configuration not stated)	25.1 µM [rising, single point]
O=C(O)c1cc(O)c2c(c1)[C@H]([C@H]1c3cc(C(=O)O)cc(O)c3C(=O)c3c(O[C@@H]4OC(CO)C(O)C(O)C4O)cccc31)c1cccc(O[C@@H]3OC(CO)C(O)C(O)C3O)c1C2=O (some centres not stated)	39.8 µM [rising, single point]
COc1cccc(-c2ccc3ncnc(NCc4ccc(OC)cc4OC)c3c2)c1	2.24 µM [rising, single point]
O=C(c1ccco1)N1CCC2(CCN(Cc3cc(C(F)(F)F)cc(C(F)(F)F)c3)CC2)CC1	0.562 µM [rising, full curve, poor fit]
c1cc2c3c(c1)c1c(n3CCNC2)CCCC1	31.6 µM [rising, partial curve]
OCC1O[C@H](O[C@H]2C(O)C(O)C(O)O[C@@H]2CO)C(O)C(O)C1O (some centres not stated)	15.8 µM [rising, partial curve]
Cc1c(Nc2ncccc2C(=O)O)cccc1C(F)(F)F	31.6 µM [rising, partial curve, poor fit]
Cc1cccc(CNc2cc(-c3ccccc3C)ncn2)c1	39.8 µM [falling, single point]
CSc1ccc2c(c1)[C@H](N1CCN(C)CC1)Cc1ccccc1S2	12.6 µM [rising, partial curve, poor fit]
C=C(NC(=O)C(=C)NC(=O)c1csc(C2=N[C@@H]3c4csc(n4)[C@@H]4NC(=O)c5csc(n5)[C@@H]([C@](C)(O)[C@H](C)O)NC(=O)[C@@H]5CSC(=N5)/C(=C/C)NC(=O)[C@@H]([C@H](C)O)NC(=O)c5csc(n5)[C@]3(CC2)NC(=O)[C@@H](C)NC(=O)C(=C)NC(=O)[C@@H](C)NC(=O)[C@@H]([C@@H](C)CC)N[C@H]2C=Cc3c([C@H](C)O)cc(nc3[C@@H]2O)C(=O)O[C@H]4C)n1)C(N)=O	14.1 µM [falling, single point]
CC[C@@]1(O)CC2CN(CCc3c([nH]c4ccccc34)[C@](C(=O)OC)(c3cc4c(cc3OC)N(C)C3[C@@](O)(C(=O)OC)C(OC(C)=O)[C@]5(CC)C=CCN6CC[C@@]43C65)C2)C1 (some centres not stated)	39.8 µM [rising, single point]
CN1C(C(=O)Nc2ccccn2)=C(O)c2sccc2S1(=O)=O	20 µM [rising, partial curve, poor fit]
O=C(Nc1ccccc1)N1CCCC2(CCN(C(=O)c3cccc(F)c3)CC2)C1	0.0631 µM [rising, full curve, poor fit]
CN(C)C(=O)Nc1ccc(Cl)c(Cl)c1	17.8 µM [rising, partial curve]
NCCS	39.8 µM [rising, single point]
COc1c2occc2c(OC)c2c(=O)cc(C)oc12	0.562 µM [rising, full curve]
CCCCCCC[N+](CC)(CC)CCCCc1ccc(Cl)cc1	20 µM [falling, single point]
COC(=O)N1CCC2(CCCN(C(=O)Nc3ccccc3)C2)CC1	3.55 µM [rising, single point]
COc1cccc(-c2nccc(NCc3cccs3)n2)c1	0.708 µM [rising, full curve]
CC(=O)Oc1cc(C(F)(F)F)ccc1C(=O)O	0.316 µM [rising, full curve, poor fit]
c1ccc(CNc2ncncc2-c2ccc3c(c2)OCO3)cc1	1.58 µM [rising, partial curve]
OCC1O[C@H](Oc2ccc(O)cc2)C(O)C(O)C1O (some centres not stated)	3.55 µM [rising, partial curve, poor fit]
c1ccc(-c2ccc(N3CCCC4(CCNCC4)C3)cc2)cc1	0.447 µM [rising, partial curve, poor fit]
Cc1ccccc1-c1ccc2ncnc(NCc3cccs3)c2c1	5.01 µM [rising, partial curve, poor fit]
c1ccc(N2CCN(CCCOc3ccc4c(c3)OCO4)CC2)cc1	8.91 µM [rising, partial curve, poor fit]
Cn1cccc1C(=O)N1CCC2(CCCN(c3ncccn3)C2)CC1	0.708 µM [rising, full curve, poor fit]
N#Cc1cccc(NC(=O)N2CCCC3(CCN(C(=O)c4csnn4)CC3)C2)c1	0.00562 µM [rising, full curve, poor fit]
COc1ccccc1CNc1ncncc1-c1ccccc1C(F)(F)F	0.355 µM [rising, full curve]
O=C(c1cccc(F)c1)N1CCC2(CC1)CCN(c1ccccn1)CC2	1 µM [rising, full curve, poor fit]
